Data as given in ChEMBL document CHEMBL4888484, “Replenishing the malaria drug discovery pipeline: Screening and hit evaluation of the MMV Hit Generation Library 1 (HGL1) against asexual blood stage Plasmodium falciparum ,using a nano luciferase reporter read-out” (2022).
Among all 150,000 compounds or so, about 540 (0.36%) showed an effect of 50% or more. Some of the results follow.

What follows are compounds tested on Plasmodium falciparum (assay: Primary screen in NF54 nanoGlo assay, in single point, at 2uM, 72h; a lower Z score goes with more inhibition). Conditions: timepoint 72 hour.
Type: functional, Erythrocyte

Q: Which “% Inhibition” value does the source give for `O=C1[C@@H](Nc2ncccn2)CCN1c1ccc(F)c(Cl)c1` here?
A: -7%

Q: And the Z score?
A: 0.87

Q: What does the source list for `Cn1nncc1NC(=O)NC1(C(F)(F)F)CCC1`?
A: % Inhibition: 2%; Z score: -0.3

Q: What does the source list for `COc1ccc(CCNC(=O)C2(c3cccc(Cl)c3)CCC2)cc1OC`?
A: % Inhibition: -2%; Z score: 0.21

Q: How did the “% Inhibition” value turn out when `Cc1ncc(CN2CC(C)(C)[C@H]2c2ccccc2)n1C` was run?
A: -10%

Q: And the Z score?
A: 1.05

Q: For `COc1ccc(Cl)cc1S(=O)(=O)N1CC[C@H](c2ccc3c(c2)OCO3)C1`, which “% Inhibition” value is on record?
A: 6%

Q: And the Z score?
A: -0.78

Q: Which “% Inhibition” value does the source give for `CCn1cc(CNc2nnc(C(C)C)s2)cn1` here?
A: -7%

Q: And the Z score?
A: 1.06

Q: `COc1ccc(OC)c(-c2ccnc(-n3ncc(C(=O)N4CCN(C(C)C)CC4)c3C)n2)c1` was tested. Which “% Inhibition” value did it give?
A: 5%

Q: What about the Z score of the same compound?
A: -0.69

Q: With `CCC(=O)N1CCN(C(=O)Nc2ccc(Cl)cc2)[C@H]2CS(=O)(=O)C[C@H]21` as the compound, how does the “% Inhibition” value read?
A: -28%

Q: And the Z score?
A: 2.49

Q: Which results are given for `COc1ccc(CNC(=O)c2ccc(S(=O)(=O)N[C@H]3CCS(=O)(=O)C3)cc2)cc1`?
A: % Inhibition: -11%; Z score: 2.05

Q: `CCOc1ccc(C(C)(C)C(=O)N[C@@H](C)c2ccncc2F)cc1OCC` was tested. Which “% Inhibition” value did it give?
A: -9%

Q: And the Z score?
A: 1.34

Q: With `Cc1noc(C(NC(C)Cn2cnc(C)c2C)C(C)C)n1` (stereo not drawn) as the compound, how does the “% Inhibition” value read?
A: -5%

Q: And the Z score?
A: 0.52

Q: `CN1CCc2cc(-c3nc(C(=O)O)cs3)ccc21` was tested. Which “% Inhibition” value did it give?
A: -4%

Q: What about the Z score of the same compound?
A: 0.85

Q: How did the “% Inhibition” value turn out when `C=C[C@](C)(CCOC)C(=O)N1Cc2cccc(Br)c2C1` was run?
A: -7%

Q: What about the Z score of the same compound?
A: 0.71

Q: Which results are given for `Cc1cc2c(cc1S(=O)(=O)N1CCC[C@H]1C(=O)Nc1cccc(Cl)c1)OCC(=O)N2`?
A: % Inhibition: -7%; Z score: 1.4

Q: Which “% Inhibition” value does the source give for `Cc1csc(NC(=O)C(F)(F)C(F)(F)C(=O)Nc2nc(C)cs2)n1` here?
A: 0%

Q: What about the Z score of the same compound?
A: 0.02

Q: Which results are given for `Cc1nc(Cn2nnnc2C)sc1C`?
A: % Inhibition: 1%; Z score: -0.1

Q: How did the “% Inhibition” value turn out when `Cc1ccc(C)c(N2CCN(Cc3nc(-c4ccc(N5CCCC5)nc4)no3)CC2)c1` was run?
A: -2%

Q: What about the Z score of the same compound?
A: 0.24

Q: With `COCC1(NC(=O)Nc2ccncn2)CCC1` as the compound, how does the “% Inhibition” value read?
A: -4%

Q: What about the Z score of the same compound?
A: 0.68

Q: For `Cc1ccc(C(=O)N(CCN(C)C)CC(=O)OC(C)(C)C)cn1`, which “% Inhibition” value is on record?
A: -5%

Q: And the Z score?
A: 0.99

Q: With `CCN(CC)CCNC(=O)c1ccc2c(c1)n(Cc1ccccc1)c(=O)c1ccnn12` as the compound, how does the “% Inhibition” value read?
A: 6%

Q: What about the Z score of the same compound?
A: -0.88

Q: How did the “% Inhibition” value turn out when `CCc1nc(C(C)C)ccc1CN1CCC2(CC1)COC(=O)N2` was run?
A: -6%

Q: What about the Z score of the same compound?
A: 1

Q: For `Cc1nc(N[C@@H](CO)c2ccc(F)cc2F)c2c(C)csc2n1`, which “% Inhibition” value is on record?
A: -5%

Q: And the Z score?
A: 0.94

Q: `CCN1CCO[C@@H](CNCc2c(C)nn(C)c2Cl)C1` was tested. Which “% Inhibition” value did it give?
A: -5%

Q: What about the Z score of the same compound?
A: 0.67

Q: With `O=C(NC[C@H](C(=O)O)C1CCCCC1)c1cccc(C(F)F)c1` as the compound, how does the “% Inhibition” value read?
A: -16%

Q: And the Z score?
A: 1.97

Q: With `Cc1cnc(C2CC2)n1[C@H]1CCCN(S(=O)(=O)C(C)C)C1` as the compound, how does the “% Inhibition” value read?
A: 0%

Q: What about the Z score of the same compound?
A: 0.01

Q: `O=S(=O)(c1c(Cl)cccc1Cl)N1CCC[C@H]1c1nc2ccccc2s1` was tested. Which “% Inhibition” value did it give?
A: -3%

Q: And the Z score?
A: 0.51

Q: How did the “% Inhibition” value turn out when `Fc1ccc2ncnc(N3CCc4c(F)ccc(F)c4C3)c2c1` was run?
A: -12%

Q: And the Z score?
A: 1.52

Q: `COC1(C)CC(NC(=O)CCCc2nccs2)C1(C)C` (stereo not drawn) was tested. Which “% Inhibition” value did it give?
A: -5%

Q: What about the Z score of the same compound?
A: 0.6

Q: Which “% Inhibition” value does the source give for `O=C1OC(C(=O)NC2CCS(=O)(=O)C2)Cc2ccccc21` (stereo not drawn) here?
A: -10%

Q: What about the Z score of the same compound?
A: 1.95

Q: What does the source list for `CC(C)N1C(=O)N[C@@H]2CN(c3ccc(S(C)(=O)=O)cc3)CC[C@@H]21`?
A: % Inhibition: 31%; Z score: -3.55

Q: How did the “% Inhibition” value turn out when `Cc1ccc(NC(=O)C[C@@H]2C=CCC2)nc1` was run?
A: -14%

Q: And the Z score?
A: 1.28

Q: What does the source list for `COc1ncncc1NCc1cnn(C(C)C)c1`?
A: % Inhibition: -3%; Z score: 0.63

Q: `Cn1cc(-c2ccc(Cl)cc2)c2ncn(CC(=O)Nc3ccccc3Cl)c(=O)c21` was tested. Which “% Inhibition” value did it give?
A: -18%

Q: And the Z score?
A: 2.61

Q: `CN1CCN(S(N)(=O)=O)C[C@]12CCNC(=O)CC2` was tested. Which “% Inhibition” value did it give?
A: -1%

Q: What about the Z score of the same compound?
A: 0.13

Q: Which results are given for `CCN1CCO[C@H](C(=O)Nc2nccn2C2CC2)C1`?
A: % Inhibition: -5%; Z score: 1.03

Q: How did the “% Inhibition” value turn out when `CCOc1ccc(CNC(=O)C(C)C)cc1Cl` was run?
A: -7%

Q: And the Z score?
A: 1.3

Q: With `CC(NC1CCC(=O)N(C)C1)c1nc(C(F)(F)F)cs1` (stereo not drawn) as the compound, how does the “% Inhibition” value read?
A: 0%

Q: And the Z score?
A: -0.05

Q: `COC(C)C(=O)NC(C)CC(=O)c1ccco1` (stereo not drawn) was tested. Which “% Inhibition” value did it give?
A: -7%

Q: And the Z score?
A: 1.07

Q: How did the “% Inhibition” value turn out when `Cn1c(=O)[nH]c(=O)c2c1nc(N1CCCCCC1)n2CCCOc1ccccc1` was run?
A: -7%

Q: And the Z score?
A: 1.03

Q: What does the source list for `Cc1ccc(NC(=O)C2CCN(S(=O)(=O)c3c(C)[nH]c(C)c3C(=O)N3CCCC3)CC2)c(Cl)c1`?
A: % Inhibition: -12%; Z score: 1.18

Q: For `CC(=O)N[C@H]1C[C@@H](c2cc(N3CCN(c4cnccn4)CC3)ncn2)C1`, which “% Inhibition” value is on record?
A: -11%

Q: And the Z score?
A: 1.29

Q: Which “% Inhibition” value does the source give for `COc1ccc(Cl)cc1C(c1c(C)n(C)c2ccccc12)c1c(C)n(C)c2ccccc12` here?
A: -7%

Q: And the Z score?
A: 0.92

Q: With `O=C(Nc1ccc2c(c1)C(O)=Nc1cccnc1O2)c1ccco1` as the compound, how does the “% Inhibition” value read?
A: 8%

Q: And the Z score?
A: -0.89

Q: How did the “% Inhibition” value turn out when `O=C(NC1CCN(Cc2ccccc2)CC1)c1cn(C[C@H]2CCCO2)nn1` was run?
A: -16%

Q: And the Z score?
A: 2.13

Q: What does the source list for `O=C1CCC2(CCN(C(=O)c3ccncc3)CC2)CN1CCc1ccncc1`?
A: % Inhibition: -10%; Z score: 1.1

Q: For `CCCN(Cc1cnn(C)c1)C(=O)NC1CCC(C(=O)NC)CC1` (stereo not drawn), which “% Inhibition” value is on record?
A: 6%

Q: What about the Z score of the same compound?
A: -0.6

Q: How did the “% Inhibition” value turn out when `Cn1ncc(Nc2ncncc2Br)c1C(F)F` was run?
A: -5%

Q: What about the Z score of the same compound?
A: 0.81

Q: For `Cc1ccc(C(C)(C)NCc2cn(C)nn2)cn1`, which “% Inhibition” value is on record?
A: -9%

Q: And the Z score?
A: 1.53

Q: Which “% Inhibition” value does the source give for `Cc1c(C(C)C)c(=O)n(-c2ccc(S(=O)(=O)N3CCN(c4nc5ccccc5nc4-c4ccccc4)CC3)cc2)n1C` here?
A: 34%

Q: What about the Z score of the same compound?
A: -4.54

Q: `C[C@@H](c1cccc(Cl)c1)N(C)CC(N)=O` was tested. Which “% Inhibition” value did it give?
A: -4%

Q: And the Z score?
A: 0.79

Q: `CCN(CC)c1onc(-c2ccccc2)c1CN(CC(O)CN1CCOCC1)CC1CCCO1` (stereo not drawn) was tested. Which “% Inhibition” value did it give?
A: -11%

Q: What about the Z score of the same compound?
A: 1.07

Q: How did the “% Inhibition” value turn out when `COCCNC(=O)NC(=O)CN1CCCC[C@@H]1C` was run?
A: -4%

Q: What about the Z score of the same compound?
A: 0.53

Q: Which “% Inhibition” value does the source give for `CC(C)c1ccc2c(c1)CC[C@H]1[C@](C)(CNC(=O)Cn3nc(-c4ccccc4F)ccc3=O)CCC[C@]21C` here?
A: 6%

Q: What about the Z score of the same compound?
A: -0.72

Q: Which results are given for `O=C(COC1CCCCC1)Nc1nc(-c2ccc3c(c2)OCO3)cs1`?
A: % Inhibition: -13%; Z score: 2.6
